Measurements: PubChem BioAssay AID894 (National Center for Advancing Translational Sciences (NCATS), 2007)
The whole screen tested about 150,000 compounds, of which about 6,500 (4.3%) were called active. The shares of active, inactive and inconclusive entries below differ from those in the screen. Calls come from the whole dose curve; as a rule, active = well fitted inhibition curve with a large enough effect (not every such curve was filed as active); inconclusive = small, poorly fitted or top-dose-only effect, or another doubt; inactive = no such curve, though single readings can be large or run the other way. Potencies beside an inconclusive call are fits to weak or partial responses and may not hold up.

The compounds below were run against 15-hydroxyprostaglandin dehydrogenase [NAD(+)] (Homo sapiens) (UniProt P15428) (assay: qHTS Assay for Inhibitors of HPGD (15-Hydroxyprostaglandin Dehydrogenase)). Settings: purified HPGD, NADH fluorescence kinetic, PGE2 substrate; activity change, negative = inhibition: active compounds read low.
Procedure, shortened: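 20 nM HPGD preincubated 15 min at room temperature with compound in 50 mM Tris-HCl pH 8, 0.01% Tween 20. Started with 1 mM NAD+ and 30 uM prostaglandin E2; NADH fluorescence (360/450 nm) read 5 times over 30-s intervals, last minus first.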
% is set by controls: 0 for no effect and ±100 for the full control effect; potency is the fitted concentration of half-maximal effect; tags give direction and shape of the fitted curve.

Sequence of UniProt P15428 (P15428 whole entry, looked up): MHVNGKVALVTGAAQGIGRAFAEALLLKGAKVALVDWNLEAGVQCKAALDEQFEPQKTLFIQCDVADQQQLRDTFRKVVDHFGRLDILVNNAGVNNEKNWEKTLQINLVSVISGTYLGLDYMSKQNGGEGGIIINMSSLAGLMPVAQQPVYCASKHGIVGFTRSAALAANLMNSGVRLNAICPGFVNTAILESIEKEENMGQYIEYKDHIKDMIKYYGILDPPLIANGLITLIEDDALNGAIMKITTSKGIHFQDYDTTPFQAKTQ

Potency, inconclusive:
O=C(CSc1nnc(-c2ccccc2)o1)N1CCc2ccccc2C1 20 µM [inhibitor, partial curve]
CCOCC(=O)Nc1c(C(=O)Nc2ccccc2OC)oc2ccccc12 28.2 µM [inhibitor, partial curve]
Cn1nc(C(F)(F)F)c(C(=O)Nc2ccc(F)cc2F)c1Sc1ccc(C(F)(F)F)cc1 3.98 µM [inhibitor, single point]
COc1ccc(C(C(=O)NC2CCCC2)N(CCN(C)C)C(=O)c2snc(C(N)=O)c2N)cc1 (stereo not given) 25.1 µM [inhibitor, partial curve, poor fit]
O=C1NC(c2ccccc2Cl)Nc2ccccc21 (stereo not given) 31.6 µM [inhibitor, partial curve]
CC(C)N1CC(O)=C(c2ccccc2)C1=N 22.4 µM [inhibitor, partial curve]
CC(COc1ccc(/C=C/c2ccccc2)cc1)[N+](C)(C)C (stereo not given) 35.5 µM [inhibitor, single point]
CCN(CCCNC(=O)c1ccc(N2CCCC2=O)cc1)c1cccc(C)c1 22.4 µM [inhibitor, partial curve]
O=C(CCC(=O)c1cccs1)OCC(=O)c1ccc(Cl)s1 39.8 µM [inhibitor, single point]
CN1CCN(c2cc3c(c4c2[nH]c2ccccc24)C(=O)CC(C)(C)C3)CC1 28.2 µM [inhibitor, partial curve]
O=C(N/N=C/c1ccc(O)cc1)c1ccc(COc2cc(Cl)ccc2Cl)o1 25.1 µM [inhibitor, partial curve]
N#CC1=C(Nc2ccccc2)SC=C(c2ccc(Br)cc2)N=C1N1CCOCC1 28.2 µM [inhibitor, partial curve]
O=C(CCCOc1ccccc1)N1CCc2ccccc2C1 39.8 µM [inhibitor, single point]
CCN1C(=O)/C(=C/c2ccc(C)o2)N(C)C1=S 39.8 µM [inhibitor, single point]
COc1cc2cc(CN(CCO)S(=O)(=O)c3ccccc3)c(=O)[nH]c2cc1OC 25.1 µM [inhibitor, partial curve]
COc1ccccc1[C@H]1C(c2cccc(C)c2)=NN(c2ccccc2)[C@@H]1CO 35.5 µM [inhibitor, partial curve]
COc1ccc(C2C(C#N)=C(SCC(=O)Nc3ccc(C)cc3)NC3=C2C(=O)CC(C)(C)C3)cc1 (stereo not given) 35.5 µM [inhibitor, partial curve, poor fit]
C=N[C@H](C(=O)N[C@@H]1C(=O)N2[C@@H]1SC(C)(C)[C@@H]2C(=O)O)c1ccccc1 14.1 µM [inhibitor, partial curve, poor fit]
COc1ccc(/C=N/OC/C(O)=C(\C#N)c2nc3ccccc3[nH]2)cc1OC 12.6 µM [inhibitor, partial curve, poor fit]
O=c1c(O)c(-c2ccc(O)c(O)c2)oc2c(OC[C@@H]3O[C@@H](O)[C@@H](O)[C@H](O)[C@H]3O)c(O)cc(O)c12 39.8 µM [inhibitor, partial curve, poor fit]
O=C(O)CC/C(=N\Nc1ccc(S(=O)(=O)N2CCCC2)cc1[N+](=O)[O-])c1cccs1 15.8 µM [inhibitor, partial curve]
COc1cccc(N2CCN(c3ncnc4c3cnn4-c3ccc(C)cc3C)CC2)c1 31.6 µM [inhibitor, partial curve]

Potency, active:
Cc1cc(NS(=O)(=O)c2ccc(NC(=S)NC(=O)c3ccc(C(C)(C)C)cc3)cc2)no1 17.8 µM
c1ccc(C[n+]2csc3ccccc32)cc1 14.1 µM
O=C(NCc1ccco1)c1cccnc1-c1nc2ccccc2s1 15.8 µM
Cc1cccc(OCc2n[nH]c(=S)n2C2CCCCC2)c1 10 µM
COc1cc(/C=C2/S/C(=N/S(=O)(=O)c3ccccc3)NC2=O)c([N+](=O)[O-])cc1OC 5.01 µM
CCCn1nnnc1NC(=O)CSc1ccc(Cl)cc1 15.8 µM

Activity change, negative = inhibition, inactive:
Nc1nc2nc3c(nc2c(=O)[nH]1)CN(c1ccc(C(=O)O)cc1)C3=O -0.981%
C=CCn1c(N2C(=O)CC(Cc3ccccc3)C2=O)nc2ccccc21 (stereo not given) -1.33%
CCc1c(C)[nH]n(-c2nc(-c3cccc([N+](=O)[O-])c3)cs2)c1=O -16.7%
COc1ccc(C)cc1-n1c(SCC(=O)Nc2cc(C)on2)nc2sc(C)c(C)c2c1=O -7.84%
Cc1nc2sc(C(c3cccs3)N3CCOCC3)c(O)n2n1 (stereo not given) -4.38%
O=C(COC(=O)c1c2c(nc3ccccc13)CCCC2)Nc1ccc2c(c1)OCO2 -21.4%
Cc1cccc(C)c1OCC(O)CNC(C)(C)C (stereo not given) 0.486%
COC(=O)c1ccc(SCC(=O)NC2CCCCC2)c([N+](=O)[O-])c1 -16.4%
COc1cccc(C(=O)COC(=O)C(C)N2C(=O)c3ccccc3C2=O)c1 (stereo not given) -17.4%
N=c1n(CCN2CCCCC2)c2ccccc2n1CC(O)c1cccc(Br)c1 (stereo not given) 1.07%
O=C(Oc1ccc(C(=S)N2CCOCC2)cc1)c1ccc(Br)cc1 -6.72%
CN(C)S(=O)(=O)c1cccc(C(=O)Nc2cc(Cl)ccc2O)c1 -16.1%
COc1ccc(/C=C(\C#N)C(N)=O)c(OC)c1 -15.7%
C=CCNC(=S)NNC(=O)c1cccn(Cc2cccc(Cl)c2)c1=O -2.75%
CCCN(CCC)CCCNC(=S)Nc1ccc2nc3n(c(=O)c2c1)CCCCC3 -5.54%
COc1ccc(CC(=O)N2CCN(C(=O)Cc3ccc(OC)cc3)CC2)cc1 -1.03%
O=C(NCCOc1nc(N2CCCCC2)nc(N2CCOCC2)n1)Nc1ccccc1 -7.79%
